Assay results published in the supplement of paper PMC8728848.
This is one part of the list.

How the values were obtained:
Assay in all cases: glycan array binding signal (z-score within array); higher = stronger binding
Details in all cases: glycan notation: IUPAC condensed, linker removed
[1] = target: Fuc(a1-3)[Gal3S(b1-4)]GlcNAc6S
In short: (§1)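 Glycan array binding is given as a within-array Z-score, which can be read as non-binding when negative. The arrays, 3228 of them, came from the Consortium for Functional Glycomics database and were retained only where the protein sequence was available. Z-scores were averaged across arrays of the same protein sequence at different concentrations or buffers and across linkers.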

[2] = target: Fuc(a1-3)[GalNAc(b1-4)]GlcNAc
In short: as §1

[3] = target: Fuc(a1-3)[GalNAc(b1-4)]GlcNAc6S
In short: as §1

Fuc(a1-4)GlcNAc = target: Fuc(a1-4)GlcNAc
In short: as §1

Fuc(b1-3)GlcNAc = target: Fuc(b1-3)GlcNAc
In short: as §1

Gal(a1-2)Gal = target: Gal(a1-2)Gal
In short: as §1

Gal(a1-3)Gal = target: Gal(a1-3)Gal
In short: as §1

Gal(a1-3)Gal(b1-3)GlcNAc = target: Gal(a1-3)Gal(b1-3)GlcNAc
In short: as §1

[4] = target: Gal(a1-3)Gal(b1-3)GlcNAc(b1-2)Man
In short: as §1

[5] = target: Gal(a1-3)Gal(b1-3)GlcNAc(b1-2)Man(a1-3)[Gal(a1-3)Gal(b1-3)GlcNAc(b1-2)Man(a1-6)]Man(b1-4)GlcNAc(b1-4)GlcNAc
In short: as §1

[6] = target: Gal(a1-3)Gal(b1-3)GlcNAc(b1-3)GalNAc
In short: as §1

[7] = target: Gal(a1-3)Gal(b1-3)GlcNAc(b1-6)GalNAc
In short: as §1

[8] = target: Gal(a1-3)Gal(b1-3)[Fuc(a1-4)]GlcNAc(b1-2)Man(a1-3)[Gal(a1-3)Gal(b1-3)[Fuc(a1-4)]GlcNAc(b1-2)Man(a1-6)]Man(b1-4)GlcNAc(b1-4)GlcNAc
In short: as §1

Gal(a1-3)Gal(b1-4)Glc = target: Gal(a1-3)Gal(b1-4)Glc
In short: as §1

Gal(a1-3)Gal(b1-4)GlcNAc = target: Gal(a1-3)Gal(b1-4)GlcNAc
In short: as §1

[9] = target: Gal(a1-3)Gal(b1-4)GlcNAc(b1-2)Man
In short: as §1

[10] = target: Gal(a1-3)Gal(b1-4)GlcNAc(b1-2)Man(a1-3)[Gal(a1-3)Gal(b1-4)GlcNAc(b1-2)Man(a1-6)]Man(b1-4)GlcNAc(b1-4)GlcNAc
In short: as §1

[11] = target: Gal(a1-3)Gal(b1-4)GlcNAc(b1-3)GalNAc
In short: as §1

[12] = target: Gal(a1-3)Gal(b1-4)GlcNAc(b1-6)GalNAc
In short: as §1

[13] = target: Gal(a1-3)Gal(b1-4)[Fuc(a1-3)]GlcNAc
In short: as §1

[14] = target: Gal(a1-3)Gal(b1-4)[Fuc(a1-3)]GlcNAc(b1-2)Man(a1-3)[Gal(a1-3)Gal(b1-4)[Fuc(a1-3)]GlcNAc(b1-2)Man(a1-6)]Man(b1-4)GlcNAc(b1-4)GlcNAc
In short: as §1

Gal(a1-3)GalNAc = target: Gal(a1-3)GalNAc
In short: as §1

[15] = target: Gal(a1-3)[Gal(a1-4)]Gal(b1-4)GlcNAc
In short: as §1

[16] = target: Gal(a1-4)Gal(b1-3)GlcNAc(b1-2)Man(a1-3)[Gal(a1-4)Gal(b1-3)GlcNAc(b1-2)Man(a1-6)]Man(b1-4)GlcNAc(b1-4)GlcNAc
In short: as §1

Gal(a1-4)Gal(b1-4)Glc = target: Gal(a1-4)Gal(b1-4)Glc
In short: as §1

Gal(a1-4)Gal(b1-4)GlcNAc = target: Gal(a1-4)Gal(b1-4)GlcNAc
In short: as §1

[17] = target: Gal(a1-4)Gal(b1-4)GlcNAc(b1-2)Man(a1-3)[Gal(a1-4)Gal(b1-4)GlcNAc(b1-2)Man(a1-6)]Man(b1-4)GlcNAc(b1-4)GlcNAc
In short: as §1

[18] = target: Gal(a1-4)Gal(b1-4)GlcNAc(b1-3)Gal(b1-4)Glc
In short: as §1

Gal(a1-4)GlcNAc = target: Gal(a1-4)GlcNAc
In short: as §1

Gal(a1-6)Glc = target: Gal(a1-6)Glc
In short: as §1

Gal(b1-2)Gal = target: Gal(b1-2)Gal
In short: as §1

Gal(b1-3)Gal = target: Gal(b1-3)Gal
In short: as §1

Gal(b1-3)Gal(b1-4)GlcNAc = target: Gal(b1-3)Gal(b1-4)GlcNAc
In short: as §1

Gal(b1-3)GalNAc = target: Gal(b1-3)GalNAc
In short: as §1

[19] = target: Gal(b1-3)GalNAc(a1-3)[Fuc(a1-2)]Gal(b1-4)Glc
In short: as §1

[20] = target: Gal(b1-3)GalNAc(a1-3)[Fuc(a1-2)]Gal(b1-4)GlcNAc
In short: as §1

Gal(b1-3)GalNAc(b1-3)Gal = target: Gal(b1-3)GalNAc(b1-3)Gal
In short: as §1

[21] = target: Gal(b1-3)GalNAc(b1-3)Gal(a1-4)Gal(b1-4)Glc
In short: as §1

[22] = target: Gal(b1-3)GalNAc(b1-4)Gal(b1-4)Glc
In short: as §1

[23] = target: Gal(b1-3)GalNAc(b1-4)[Neu5Ac(a2-3)]Gal(b1-4)Glc
In short: as §1

Gal(b1-3)GlcNAc = target: Gal(b1-3)GlcNAc
In short: as §1

[24] = target: Gal(b1-3)GlcNAc(a1-3)Gal(b1-4)GlcNAc
In short: as §1

[25] = target: Gal(b1-3)GlcNAc(a1-6)Gal(b1-4)GlcNAc
In short: as §1

Gal(b1-3)GlcNAc(b1-2)Man = target: Gal(b1-3)GlcNAc(b1-2)Man
In short: as §1

[26] = target: Gal(b1-3)GlcNAc(b1-2)Man(a1-3)[Gal(b1-3)GlcNAc(b1-2)Man(a1-6)]Man(b1-4)GlcNAc(b1-4)GlcNAc
In short: as §1

B1: Tamarinin (protein)
chain: CDDSARAGNIVVYWGQGGSDNSEGSLKEACKSGHYNMIVLQQLIVYDDGRDPDLNLGAHCSDCTKLEEQIKYCQNKDIKILLQIGQVVPTQEDVKDVTKNLSEYLLKNFFSGKSGPLGEVYLNGIDIASVPEGNNLKFDELVEALNDSSTERRIYLSASPLCVYPDYYLNKAIQTEKLDFLFVQFFYQNPCIYTEGNPENLFEAMKTWTKNVPESMIFMALPATPNLDGYIPPRVLNKEILPAVSEASNFAGVMIFDRYFDRFRKYSSKIK
- glycan array binding signal (z-score) [1]: -0.15
- glycan array binding signal (z-score) [2]: -0.154
- glycan array binding signal (z-score) [3]: 0.982
- glycan array binding signal (z-score) (Fuc(a1-4)GlcNAc): -0.282
- glycan array binding signal (z-score) (Fuc(b1-3)GlcNAc): -0.048
- glycan array binding signal (z-score) (Gal(a1-2)Gal): -0.001
- glycan array binding signal (z-score) (Gal(a1-3)Gal): -0.391
- glycan array binding signal (z-score) (Gal(a1-3)Gal(b1-3)GlcNAc): -0.375
- glycan array binding signal (z-score) [4]: -0.144
- glycan array binding signal (z-score) [5]: 0.365
- glycan array binding signal (z-score) [6]: 0.753
- glycan array binding signal (z-score) [7]: -0.253
- glycan array binding signal (z-score) [8]: 1.86
- glycan array binding signal (z-score) (Gal(a1-3)Gal(b1-4)Glc): -0.41
- glycan array binding signal (z-score) (Gal(a1-3)Gal(b1-4)GlcNAc): -0.348
- glycan array binding signal (z-score) [9]: -0.302
- glycan array binding signal (z-score) [10]: -0.05
- glycan array binding signal (z-score) [11]: -0.324
- glycan array binding signal (z-score) [12]: -0.388
- glycan array binding signal (z-score) [13]: -0.374
- glycan array binding signal (z-score) [14]: 0.666
- glycan array binding signal (z-score) (Gal(a1-3)GalNAc): -0.21
- glycan array binding signal (z-score) [15]: -0.349
- glycan array binding signal (z-score) [16]: 1.18
- glycan array binding signal (z-score) (Gal(a1-4)Gal(b1-4)Glc): -0.04
- glycan array binding signal (z-score) (Gal(a1-4)Gal(b1-4)GlcNAc): -0.384
- glycan array binding signal (z-score) [17]: 0.837
- glycan array binding signal (z-score) [18]: 0.884
- glycan array binding signal (z-score) (Gal(a1-4)GlcNAc): 0.001
- glycan array binding signal (z-score) (Gal(a1-6)Glc): 0.165
- glycan array binding signal (z-score) (Gal(b1-2)Gal): -0.111
- glycan array binding signal (z-score) (Gal(b1-3)Gal): -0.08
- glycan array binding signal (z-score) (Gal(b1-3)Gal(b1-4)GlcNAc): 11.2
- glycan array binding signal (z-score) (Gal(b1-3)GalNAc): -0.241
- glycan array binding signal (z-score) [19]: -0.437
- glycan array binding signal (z-score) [20]: -0.14
- glycan array binding signal (z-score) (Gal(b1-3)GalNAc(b1-3)Gal): -0.319
- glycan array binding signal (z-score) [21]: -0.212
- glycan array binding signal (z-score) [22]: 1.29
- glycan array binding signal (z-score) [23]: 0.694
- glycan array binding signal (z-score) (Gal(b1-3)GlcNAc): -0.283
- glycan array binding signal (z-score) [24]: -0.252
- glycan array binding signal (z-score) [25]: -0.048
- glycan array binding signal (z-score) (Gal(b1-3)GlcNAc(b1-2)Man): -0.169
- glycan array binding signal (z-score) [26]: -0.258
